Out of some 45,000 compounds screened, about 65 (0.1%) were called active. Calls follow the shape of the dose curve; as a rule, active = well fitted activation curve with a large enough effect; inconclusive = small, poorly fitted or top-dose-only effect; inactive = no such curve, though single readings can be large or run the other way. Some of the results follow.
Each compound was assayed against Galactocerebrosidase (Homo sapiens) (UniProt P54803) (assay: A Novel Cell-Based Assay to Identify Small Molecules for B -Galactocerebrosidase). Details: 145M-Twi-hGALC-G270D cells (Twitcher mouse brain line with human GALC G270D), HMU-beta-Gal fluorescence, 48 h; series mostly up to 57.5 µM; activation: at the top concentration.
Chain of UniProt P54803 (P54803 whole entry, looked up): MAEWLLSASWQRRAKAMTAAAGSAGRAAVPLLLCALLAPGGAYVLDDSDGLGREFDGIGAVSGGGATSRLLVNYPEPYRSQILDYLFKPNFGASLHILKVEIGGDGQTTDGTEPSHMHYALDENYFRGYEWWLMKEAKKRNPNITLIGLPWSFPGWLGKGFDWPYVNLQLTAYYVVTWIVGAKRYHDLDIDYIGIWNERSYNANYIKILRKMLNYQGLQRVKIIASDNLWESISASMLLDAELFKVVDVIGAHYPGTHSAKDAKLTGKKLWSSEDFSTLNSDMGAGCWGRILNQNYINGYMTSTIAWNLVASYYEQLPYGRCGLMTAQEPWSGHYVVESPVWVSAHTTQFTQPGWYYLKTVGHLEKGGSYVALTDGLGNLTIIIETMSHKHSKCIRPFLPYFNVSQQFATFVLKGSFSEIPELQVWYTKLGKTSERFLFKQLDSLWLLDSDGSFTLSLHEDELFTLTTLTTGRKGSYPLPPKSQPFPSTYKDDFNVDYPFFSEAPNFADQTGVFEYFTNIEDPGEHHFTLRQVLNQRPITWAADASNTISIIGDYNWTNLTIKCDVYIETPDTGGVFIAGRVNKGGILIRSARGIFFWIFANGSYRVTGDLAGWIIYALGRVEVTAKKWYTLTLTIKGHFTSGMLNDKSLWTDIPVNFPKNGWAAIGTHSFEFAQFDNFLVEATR
Outline: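 Brain-derived Twitcher mouse 145M-Twi cells stably expressing human GALC-G270D or wild-type GALC, treated live, then residual GALC activity read by fluorescence of HMU-b-Gal substrate (0.1 mM final) in citrate-phosphate buffer pH 5.2 with sodium taurocholate. Signal increase indicates enhancement.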
Also: 0% is about no effect; nearly all actives have a fitted effect of over 65% in size.

activation, inactive:
COC(=O)c1cc2c(cc1NC(=O)c1cnn(-c3ccccc3)c1-n1cccc1)OCO2 -12.2%, CSc1nc(Nc2ccc(C)cc2C)cc(-c2ccccc2)n1 -7.87%, COc1ccccc1CN1CCC(CNS(=O)(=O)c2cc(-c3onc(C)c3C)ccc2OC)CC1 -11.2%, Cc1nn(-c2ccccc2)c(OC(=O)c2cccc(Br)c2)c1S(=O)(=O)c1ccccc1 -20.4%, N#Cc1nc(-c2ccc(COc3ccccc3)o2)oc1NCc1cccnc1 -11%, CSc1ccc(CCNC(=O)C2=C(C)C(=O)OC23CCCCC3)cc1 -13.8%, COc1ccc(NC(=O)CN2C(=O)C(C)(C)c3ccccc32)cc1Cl -17.1%, Cc1cccc(Cn2c(=O)n(CC3CCC(C(=O)NC(C)C)CC3)c(=O)c3sccc32)c1 (stereo not given) -10.4%, COc1cccc(C2CC(=O)Nc3cc(OC)c(OC)c(OC)c32)c1OC(C)C (stereo not given) -7.68%, COc1cc(CNC(=O)c2sc3ncccc3c2-n2cccc2)cc(OC)c1OC -4.41%, CCC1NC(=O)c2cc(S(N)(=O)=O)c(Cl)cc2N1 (stereo not given) -8.13%, Cc1cccc(N2CCN(C(=O)Cn3ncc4c3-c3cc(C)ccc3OC4)CC2C)c1 (stereo not given) -9.81%, CC(=O)Oc1ccc(C2(c3ccc(OC(C)=O)cc3)C(=O)Nc3ccccc32)cc1 -14.4%, COC(=O)c1ccc(OCC2c3cc(OC)c(OC)cc3CCN2C(=O)c2ccccc2C)cc1 (stereo not given) -17.7%, Cc1nc(N2CCCC2)c2c(C(=O)N3CCN(c4ccc(F)cc4)CC3)c(C)oc2n1 -5.09%, Cc1ccc(-c2nnc(Nc3ccc(Br)cc3)c3ccccc23)cc1S(=O)(=O)NCC1CCCO1 (stereo not given) -17.2%, COc1cccc(-c2nc(SCC(=O)NCC3CCCO3)c(-c3ccc(C)cc3)[nH]2)c1 (stereo not given) -18.4%, COc1ccc(NC(=O)Cn2c(=O)n(CCC(C)C)c(=O)c3cccnc32)cc1Cl -9.62%, CCOc1ccc(C2CC(=O)NC(NC(=O)c3ccc(C)cc3)=N2)cc1 (stereo not given) -20.2%, CCOc1ccc(NC(=O)c2cc3c(C)nn(-c4ccccc4)c3s2)cc1 -10.2%, Cc1ccc(OCC(=O)N(Cc2ccc(Cl)cc2)Cc2ccco2)cc1C -9.05%, Cc1cc(C)cc(NC(=O)c2cc(C)nc3c2c(C)nn3-c2ccccc2)c1 -20.7%, Cc1cccc(Cn2cc(/C=C(/C#N)C(=O)Nc3cccc(Cl)c3)c3ccccc32)c1 -18.5%, CCN(C(=O)c1cc2c(=O)oc3ccccc3c2s1)c1ccc(C)c(C)c1 -10.4%, Cc1ccc(Cn2c(C(=O)O)c(CNC3CCCCC3)c3ccc(C)cc32)cc1 -2.11%, CC(C)NC(=O)C1CCC(Cn2c(=O)c3sccc3n(CC(=O)N3CCCC3)c2=O)CC1 (stereo not given) -6.26%, Cc1ccccc1Nc1cc(C(=O)NC2CCCC2)c2ccccc2n1 -4.64%, COc1ccc(NC(=O)c2ccc3c(=O)n4nc(Nc5ccccc5C)sc4nc3c2)cc1Cl -25.1%, Cc1ccccc1C(=O)Nc1ccccc1OCc1cc(=O)n2ccccc2n1 -9.56%, Cc1ccc(C(=O)NCC(c2ccc3c(c2)OCO3)N2CCN(c3ccc(F)cc3)CC2)cc1 (stereo not given) -9.14%, CCOc1ccccc1NC(=O)Cn1c(=O)n(Cc2nc(C)no2)c(=O)c2ccccc21 -11.2%, Clc1ccccc1CNc1ncnc2c1nc1n2CCCC1 -12.5%, CCN(CC)c1nc2c(S(=O)(=O)c3ccccc3)nnn2c2ccc(Cl)cc12 -9.33%, Cc1cccc(CS(=O)(=O)Cc2ccc(C(=O)NCc3ccccc3)o2)c1 -14.5%, Cc1cccc(-c2nc(S(=O)(=O)c3ccc(Cl)cc3)c(N3CCCCCC3)o2)c1 -12%, CCOc1ccc(CCNC(=O)c2c(C)oc3ncn(CC(C)C)c(=O)c23)cc1 -16.4%, O=C(NCc1ccc(F)cc1)C1CCN(S(=O)(=O)c2ccc3c(c2)CCCN3C(=O)C2CCC2)CC1 6.43%, Cc1ccccc1C(=O)Oc1cc(-c2ccc3c(c2)OCO3)cc(=O)c2c(C)oc(C)c12 -6.04%, O=C(COc1ccccc1Cl)N(Cc1ccco1)Cc1ccco1 -7.76%, CN(C)c1ccc(NC(=O)CSc2nc(-c3ccco3)cc(C(F)(F)F)n2)cc1 -14.2%, COc1ccccc1N1CCN(S(=O)(=O)c2c(C)sc3ncn(CC(=O)Nc4ccc(C(C)C)cc4)c(=O)c23)CC1 -19.2%, Cc1ccc(N2CCN(C(=O)c3ccc(Nc4nc5ccccc5n5nnnc45)cc3)CC2)c(C)c1 -11.2%, COc1ccc(-n2c(=O)c3c4c(sc3n(CC(=O)N3CCCCC3C)c2=O)CCC4)c(OC)c1 (stereo not given) -1.81%, CC1CCN(CCCNC(=O)CN2C(=O)CSc3ccc(S(=O)(=O)N4CCC(C)CC4)cc32)CC1 -11.6%, Cc1cc(C)cc(NC(=O)C2CCCN(c3cnccn3)C2)c1 (stereo not given) -0.298%, O=C(NCc1ccc(F)cc1)c1cnc(N2CCOCC2)c2ccccc12 -6.53%, Cc1ccc(S(=O)(=O)c2cnc(SCC(=O)Nc3ccccc3C(F)(F)F)[nH]c2=O)cc1C -0.0841%, Cc1ccc(Cl)cc1NC(=O)c1cc2c(=O)n3cccc(C)c3nc2n1C -12.5%, CCOc1cc(CNC(=O)c2ccc3c(c2)nc2n3CCCCC2)ccc1OC 11.3%, CCSc1nnc2c(n1)OC(c1ccc(OC)cc1OC)N(C(C)=O)c1ccccc1-2 (stereo not given) -7%, Cc1ccc(C2=NC(c3ccc(F)cc3)=Nc3ccc(C)cc3N2)cc1 -19.1%, CCC(=O)O[C@]1(C(=O)COC)[C@@H](C)C[C@H]2[C@@H]3CCC4=CC(=O)C=C[C@]4(C)C3(F)[C@@H](O)C[C@@]21C (stereo not given in full) -3.53%, O=C(NC1CCCC1)c1cnn(-c2ccc(F)cc2F)c1C1CCNCC1 -36.4%, O=S(=O)(O)c1cc(I)c(O)c2ncccc12 -7.65%, Cc1cccc(Cn2c(=O)n(CCCCC(=O)NCc3ccc4c(c3)OCO4)c(=O)c3ccccc32)c1 -16.1%, COc1ccc(Cl)cc1NC(=O)CSc1nc2c([nH]c3ccccc32)c(=O)n1-c1ccccc1 -6.59%, Cc1ccc(S(=O)(=O)N2CCN(Cc3ccccc3)CC2)c(C)c1NS(C)(=O)=O -8.47%, Cc1ccc(NC(=O)CN2c3ccccc3S(=O)(=O)c3ccccc32)cc1F -7.94%, CCN(C(=O)c1sc2cc(OC)ccc2c1Cl)c1ccccc1 -1.23%, CN(Cc1ccccc1)Cc1c(O)ccc2c(=O)c(-c3ccccc3)c(C(F)(F)F)oc12 -33%

Reference: PubChem BioAssay AID1159614 (National Center for Advancing Translational Sciences (NCATS), 2016)
